The values below come from the antibiotic and cytotoxicity screens of Wong et al. (2023).

Structures are written as SMILES. The list shows a part of the results.

Test [1] has as its system HSkMC (human skeletal muscle cells). The experiment in a line: cytotoxicity call (relative viability < 0.9). Conditions: 10 µM.
For test [2], the system named is HepG2. The experiment in a line: cytotoxicity call (relative viability < 0.9). Conditions: 10 µM.
The test system of test [3] is S. aureus RN4220. The experiment in a line: growth inhibition call (relative growth <= 0.2). The note with it: 50 µM.

For `Cn1cc(-c2cc3c(N4CCN(c5ncc([C@@](C)(N)c6ccc(F)cc6)cn5)CC4)ncnn3c2)cn1`, in test [1], the cytotoxicity call was “inactive”. Further, the cytotoxicity call in test [2] was “active”. Further, in test [3], the growth inhibition call is “inactive”.
As to `Cc1ccc(CN(CCO)CCO)cc1`, the cytotoxicity call in test [1] and in test [2] was “inactive” in each case. Moreover, in test [3], the growth inhibition call is “inactive”.
For the molecule `C[C@H](CO)N1C[C@H](C)[C@H](CN(C)CC2CCOCC2)Oc2ncc(C#Cc3ccc(F)cc3)cc2C1=O`, the cytotoxicity call in test [1] and in test [2] was “inactive” each time. Also, the growth inhibition call in test [3] was “inactive”.
As to `C[C@H]1CN([C@@H](C)CO)C(=O)c2cc(-c3cccnc3)cnc2O[C@H]1CN(C)C(=O)Nc1ccc2c(c1)OCO2`, the cytotoxicity call in test [1] and in test [2] was “inactive” throughout. Also, the growth inhibition call in test [3] is “inactive”.
As for `C[C@@H](NC(=O)C[C@@H]1CC[C@H](NC(=O)CN2CCOCC2)[C@@H](CO)O1)c1ccccc1`, the cytotoxicity call in test [1] and in test [2] was “inactive” in each case. For the same molecule, the growth inhibition call in test [3] was “inactive”.
On to `C[C@@H]1CCCCO[C@H](CN(C)C(=O)Nc2cccc3ccccc23)[C@@H](C)CN([C@H](C)CO)C(=O)c2cc(NC(=O)Cc3ccccc3)ccc2O1`, for which the cytotoxicity call in test [1] and in test [2] was “inactive” each time. Further, the growth inhibition call in test [3] is “inactive”.
`C[C@H]1CN([C@@H](C)CO)C(=O)c2cc(NC(=O)Cc3cn(C)c4ccccc34)ccc2O[C@H]1CN(C)C(=O)Nc1cccc2ccccc12`: the cytotoxicity call in test [1] and in test [2] was “inactive” each time. Moreover, in test [3], the growth inhibition call is “inactive”.
For the molecule `C[C@@H]1CCCCO[C@@H](CN(C)Cc2ccc3c(c2)OCO3)[C@H](C)CN([C@H](C)CO)C(=O)c2cc(NS(=O)(=O)c3ccccc3)ccc2O1`, in test [1], the cytotoxicity call was “inactive”. In addition, in test [2], the cytotoxicity call was “active”. In addition, the growth inhibition call in test [3] was “inactive”.
On to `COC(=O)CCCCCCC(=O)Nc1ccc(NC(=O)CCCC[P+](c2ccccc2)(c2ccccc2)c2ccccc2)cc1`, for which the cytotoxicity call in test [1] and in test [2] was “inactive” throughout. For the same molecule, the growth inhibition call in test [3] was “active”.
As to `C[C@@H]1CN([C@@H](C)CO)C(=O)Cc2cc(NC(=O)CCN3CCOCC3)ccc2O[C@H]1CN(C)CC1CCCCC1`, the cytotoxicity call in test [1] and in test [2] was “inactive” each time. Moreover, the growth inhibition call in test [3] is “inactive”.
As to `COc1ccccc1CN(C)C[C@@H]1OCc2ccccc2-c2c(n(C)c3ccccc23)C(=O)N([C@H](C)CO)C[C@@H]1C`, the cytotoxicity call in test [1] and in test [2] was “inactive” each time. Besides, in test [3], the growth inhibition call was “inactive”.
In the case of `C[C@H]1CN([C@@H](C)CO)C(=O)Cc2cc(NS(C)(=O)=O)ccc2O[C@H]1CN(C)C(=O)Nc1ccc2c(c1)OCO2`, the cytotoxicity call in test [1] and in test [2] was “inactive” in each case. Also, the growth inhibition call in test [3] is “inactive”.
Turning to `Cc1noc(C)c1S(=O)(=O)N(C)C[C@@H]1Oc2ccc(NS(=O)(=O)c3ccc(Cl)cc3)cc2C(=O)N([C@@H](C)CO)C[C@@H]1C`, the cytotoxicity call in test [1] and in test [2] was “inactive” in each case. In test [3], the growth inhibition call was “inactive”.
With `O=C(C[C@H]1C[C@@H]2c3cc(NC(=O)c4ccc5c(c4)OCO5)ccc3O[C@@H]2[C@@H](CO)O1)NCc1cccnc1`, the cytotoxicity call in test [1] and in test [2] was “inactive” in each case. In test [3], the growth inhibition call was “inactive”.
In the case of `Cc1noc(C)c1NC(=O)Nc1ccc2c(c1)C(=O)N([C@@H](C)CO)C[C@H](C)[C@@H](CN(C)C(=O)Cc1ccccc1)OCCCC[C@@H](C)O2`, the cytotoxicity call in test [1] and in test [2] was “inactive” each time. For the same molecule, the growth inhibition call in test [3] is “inactive”.
`O=C1CCC(=O)N1c1nccs1`: the cytotoxicity call in test [1] is “inactive”. Further, in test [2], the cytotoxicity call was “active”. Moreover, the growth inhibition call in test [3] was “inactive”.
Take `CCN(CC)c1ccc(N2CC=C[C@@]34O[C@@H]5C=CCOC(=O)[C@@H]5[C@H]3C(=O)N(CCCCCO)[C@@H]4C2=O)cc1`: the cytotoxicity call in test [1] and in test [2] was “inactive” in each case. The growth inhibition call in test [3] was “inactive”.
For the molecule `C[C@H]1CN([C@@H](C)CO)C(=O)c2cccc(NC(=O)Nc3ccc(C(F)(F)F)cc3)c2O[C@H]1CN(C)C(=O)Nc1ccc(C(F)(F)F)cc1`, the cytotoxicity call in test [1] and in test [2] was “inactive” each time. Further, the growth inhibition call in test [3] was “inactive”.
`C[C@H]1CN([C@@H](C)CO)C(=O)c2cccc(NC(=O)Nc3ccc(C(F)(F)F)cc3)c2O[C@@H]1CN(C)Cc1ccc(C(F)(F)F)cc1`: the cytotoxicity call in test [1] is “inactive”. Also, in test [2], the cytotoxicity call was “active”. Further, in test [3], the growth inhibition call was “inactive”.
`CO[C@H]1CN(C)C(=O)c2ccc(NC(=O)C3CC3)cc2OC[C@@H](C)N(C(=O)CN2CCOCC2)C[C@H]1C`: the cytotoxicity call in test [1] and in test [2] was “inactive” throughout. Moreover, the growth inhibition call in test [3] is “inactive”.
On to `C[C@@H]1CN([C@H](C)CO)C(=O)c2cc(NC(=O)Nc3ccc(C(F)(F)F)cc3)ccc2O[C@@H](C)CCCCO[C@@H]1CN(C)CC1CCCCC1`, for which the cytotoxicity call in test [1] and in test [2] was “active” each time. Besides, the growth inhibition call in test [3] was “inactive”.
In the case of `O=C(N[C@H]1CC[C@@H](CC(=O)N2CCOCC2)O[C@@H]1CO)c1ccccn1`, the cytotoxicity call in test [1] and in test [2] was “inactive” each time. Further, the growth inhibition call in test [3] is “inactive”.
Regarding `O=c1n(C[C@H]2CO2)c(=O)n(C[C@H]2CO2)c(=O)n1C[C@H]1CO1`, the cytotoxicity call in test [1] and in test [2] was “inactive” throughout. For the same molecule, the growth inhibition call in test [3] is “inactive”.
With `O=C(O)C1CCCN1` (centres undefined), the cytotoxicity call in test [1] and in test [2] was “inactive” in each case. Besides, in test [3], the growth inhibition call is “inactive”.
On to `COc1cccc(NC(=O)N[C@H]2C=C[C@H](CC(=O)N3CCN(C)CC3)O[C@@H]2CO)c1`, for which the cytotoxicity call in test [1] and in test [2] was “inactive” each time. Besides, the growth inhibition call in test [3] is “inactive”.
As for `CC(=O)N1CCO[C@H]2CCN(C(=O)c3cn(C)cn3)C[C@H]21`, the cytotoxicity call in test [1] and in test [2] was “inactive” each time. For the same molecule, in test [3], the growth inhibition call was “inactive”.
Take `COc1ccc(S(=O)(=O)N(C)C[C@H]2Oc3ccc(NS(=O)(=O)c4ccccc4)cc3C(=O)N([C@H](C)CO)C[C@@H]2C)cc1`: the cytotoxicity call in test [1] and in test [2] was “inactive” in each case. In test [3], the growth inhibition call is “inactive”.
As for `CNC[C@@H](O)c1ccc(O)c(O)c1`, the cytotoxicity call in test [1] and in test [2] was “inactive” each time. For the same molecule, the growth inhibition call in test [3] is “inactive”.
